Measured values reported in patent publication US20260083855A1 (Hoffmann-La Roche, published 2026).

What was measured:
[1] = target: T1, hu IL2R beta-gamma-Fc (P1AD7029-002) (human, UniProt P14784 27-240; P31785 23-262); assay: SPR, purified, captured via anti-human Fc, IL2Rbg-Fc analyte, 1:1 Langmuir
T1 construct: Analyte in all SPR runs; also called human IL2R beta-gamma Fc; recombinant human IL2Rbeta-gamma-Fc heterodimer; not shown: Fc part and any linker of the heterodimer
T1 sequence (looked up) 1: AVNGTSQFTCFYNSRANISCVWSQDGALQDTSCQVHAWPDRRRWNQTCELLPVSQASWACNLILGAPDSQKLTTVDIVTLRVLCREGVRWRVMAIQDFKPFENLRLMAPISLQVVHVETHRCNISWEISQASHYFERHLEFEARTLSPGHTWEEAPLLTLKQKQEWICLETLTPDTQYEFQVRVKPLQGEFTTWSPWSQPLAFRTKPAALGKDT
T1 sequence (looked up) 2: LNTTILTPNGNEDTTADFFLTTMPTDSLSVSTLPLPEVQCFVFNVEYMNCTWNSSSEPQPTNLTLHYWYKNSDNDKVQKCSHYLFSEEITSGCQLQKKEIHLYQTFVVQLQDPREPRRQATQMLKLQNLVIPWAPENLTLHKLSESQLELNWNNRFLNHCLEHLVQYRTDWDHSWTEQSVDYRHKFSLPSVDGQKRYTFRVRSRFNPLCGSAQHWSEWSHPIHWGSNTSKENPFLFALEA
Description: (§1) Bulk refractive index differences were corrected for by subtracting the response obtained on the reference flow cell 1.

[2] = target: T1, hu IL2R beta-gamma-Fc (P1AD7029-002); assay: SPR, captured via anti-human Fc, IL2Rbg-Fc analyte, 1:1 Langmuir
Description: as §1

B1: PD1 376 IgG-huIL2v L12V (P1AE0489) (other)
light: DIVMTQSPDSLAVSLGERATINCKASESVDTSDNSFIHWYQQKPGQSPKLLIYRSSTLESGVPDRFSGSGSGTDFTLTISSLQAEDVAVYYCQQNYDVPWTFGQGTKVEIKRTVAAPSVFIFPPSDEQLKSGTASVVCLLNNFYPREAKVQWKVDNALQSGNSQESVTEQDSKDSTYSLSSTLTLSKADYEKHKVYACEVTHQGLSSPVTKSFNRGEC
heavy 1: EVQLLESGGGLVQPGGSLRLSCAASGFSFSSYTMSWVRQAPGKGLEWVATISGGGRDIYYPDSVKGRFTISRDNSKNTLYLQMNSLRAEDTAVYYCVLLTGRVYFALDSWGQGTLVTVSSASTKGPSVFPLAPSSKSTSGGTAALGCLVKDYFPEPVTVSWNSGALTSGVHTFPAVLQSSGLYSLSSVVTVPSSSLGTQTYICNVNHKPSNTKVDKKVEPKSCDKTHTCPPCPAPEAAGGPSVFLFPPKPKDTLMISRTPEVTCVVVDVSHEDPEVKFNWYVDGVEVHNAKTKPREEQYNSTYRVVSVLTVLHQDWLNGKEYKCKVSNKALGAPIEKTISKAKGQPREPQVCTLPPSRDELTKNQVSLSCAVKGFYPSDIAVEWESNGQPENNYKTTPPVLDSDGSFFLVSKLTVDKSRWQQGNVFSCSVMHEALHNHYTQKSLSLSPGK
heavy 2: EVQLLESGGGLVQPGGSLRLSCAASGFSFSSYTMSWVRQAPGKGLEWVATISGGGRDIYYPDSVKGRFTISRDNSKNTLYLQMNSLRAEDTAVYYCVLLTGRVYFALDSWGQGTLVTVSSASTKGPSVFPLAPSSKSTSGGTAALGCLVKDYFPEPVTVSWNSGALTSGVHTFPAVLQSSGLYSLSSVVTVPSSSLGTQTYICNVNHKPSNTKVDKKV[human IgG1 Fc with changes not written out]GGGGSGGGGSGGGGSAPASSSTKKTQVQLEHLLLDLQMILNGINNYKNPKLTRMLTAKFAMPKKATELKHLQCLEEELKPLEEVLNGAQSKNFHLRPRDLISNINVIVLELKGSETTFMCEYADETATIVEFLNRWITFAQSIISTLT
notes: Immunoconjugate: anti-human PD-1 (376) IgG1 PG LALA knob/hole, IL2v variant on the knob heavy chain; also called P1AE0489-007
With B1 the Kd [1] was 4 pM, the koff [1] was 7.53e-07 s⁻¹ and the kon [1] was 191000 M⁻¹ s⁻¹.

B2: PD1 376 IgG-huIL2v N88A (P1AE0495) (other)
light: B1 light
heavy 1: B1 heavy 1
heavy 2: EVQLLESGGGLVQPGGSLRLSCAASGFSFSSYTMSWVRQAPGKGLEWVATISGGGRDIYYPDSVKGRFTISRDNSKNTLYLQMNSLRAEDTAVYYCVLLTGRVYFALDSWGQGTLVTVSSASTKGPSVFPLAPSSKSTSGGTAALGCLVKDYFPEPVTVSWNSGALTSGVHTFPAVLQSSGLYSLSSVVTVPSSSLGTQTYICNVNHKPSNTKVDKKV[human IgG1 Fc with changes not written out]GGGGSGGGGSGGGGSAPASSSTKKTQLQLEHLLLDLQMILNGINNYKNPKLTRMLTAKFAMPKKATELKHLQCLEEELKPLEEVLNGAQSKNFHLRPRDLISAINVIVLELKGSETTFMCEYADETATIVEFLNRWITFAQSIISTLT
notes: Immunoconjugate: anti-human PD-1 (376) IgG1 PG LALA knob/hole, IL2v variant on the knob heavy chain; also called P1AE0495-004
B2 showed a Kd [1] of 1500 pM, a koff [1] of 0.00017 s⁻¹ and a kon [1] of 115000 M⁻¹ s⁻¹.

B3: FAP 4B9 IgG-huIL2v (IL2qm) (P1AE4798) (other)
light: EIVLTQSPGTLSLSPGERATLSCRASQSVTSSYLAWYQQKPGQAPRLLINVGSRRATGIPDRFSGSGSGTDFTLTISRLEPEDFAVYYCQQGIMLPPTFGQGTKVEIKRTVAAPSVFIFPPSDEQLKSGTASVVCLLNNFYPREAKVQWKVDNALQSGNSQESVTEQDSKDSTYSLSSTLTLSKADYEKHKVYACEVTHQGLSSPVTKSFNRGEC
heavy 1: EVQLLESGGGLVQPGGSLRLSCAASGFTFSSYAMSWVRQAPGKGLEWVSAIIGSGASTYYADSVKGRFTISRDNSKNTLYLQMNSLRAEDTAVYYCAKGWFGGFNYWGQGTLVTVSSASTKGPSVFPLAPSSKSTSGGTAALGCLVKDYFPEPVTVSWNSGALTSGVHTFPAVLQSSGLYSLSSVVTVPSSSLGTQTYICNVNHKPSNTKVDKKVEPKSCDKTHTCPPCPAPEAAGGPSVFLFPPKPKDTLMISRTPEVTCVVVDVSHEDPEVKFNWYVDGVEVHNAKTKPREEQYNSTYRVVSVLTVLHQDWLNGKEYKCKVSNKALGAPIEKTISKAKGQPREPQVCTLPPSRDELTKNQVSLSCAVKGFYPSDIAVEWESNGQPENNYKTTPPVLDSDGSFFLVSKLTVDKSRWQQGNVFSCSVMHEALHNHYTQKSLSLSPGK
heavy 2: EVQLLESGGGLVQPGGSLRLSCAASGFTFSSYAMSWVRQAPGKGLEWVSAIIGSGASTYYADSVKGRFTISRDNSKNTLYLQMNSLRAEDTAVYYCAKGWFGGFNYWGQGTLVTVSSASTKGPSVFPLAPSSKSTSGGTAALGCLVKDYFPEPVTVSWNSGALTSGVHTFPAVLQSSGLYSLSSVVTVPSSSLGTQTYICNVNHKPSNTKVDKKV[human IgG1 Fc with changes not written out]GGGGSGGGGSGGGGSGGGGSGGGGSAPASSSTKKTQLQLEHLLLDLQMILNGINNYKNPKLTRMLTAKFAMPKKATELKHLQCLEEELKPLEEVLNGAQSKNFHLRPRDLISNINVIVLELKGSETTFMCEYADETATIVEFLNRWITFAQSIISTLT
notes: also called FAP 4B9 IgG-huIL2v (G4S)5
B3 showed a Kd [2] of 40 pM, a koff [2] of 1.07e-06 s⁻¹ and a kon [2] of 41200 M⁻¹ s⁻¹.

B4: FAP 4B9 IgG-huIL2v_D20T_Selectikine (P1AE4799) (other)
light: B3 light
heavy 1: B3 heavy 1
heavy 2: EVQLLESGGGLVQPGGSLRLSCAASGFTFSSYAMSWVRQAPGKGLEWVSAIIGSGASTYYADSVKGRFTISRDNSKNTLYLQMNSLRAEDTAVYYCAKGWFGGFNYWGQGTLVTVSSASTKGPSVFPLAPSSKSTSGGTAALGCLVKDYFPEPVTVSWNSGALTSGVHTFPAVLQSSGLYSLSSVVTVPSSSLGTQTYICNVNHKPSNTKVDKKV[human IgG1 Fc with changes not written out]GGGGSGGGGSGGGGSGGGGSGGGGSAPASSSTKKTQLQLEHLLLTLQMILNGINNYKNPKLTRMLTAKFAMPKKATELKHLQCLEEELKPLEEVLNGAQSKNFHLRPRDLISNINVIVLELKGSETTFMCEYADETATIVEFLNRWITFAQSIISTLT
notes: Immunoconjugate: anti-FAP IgG1 PG LALA knob/hole, IL2v variant fused to the C-terminus of the knob heavy chain; also called P1AE4799-003
B4 was tested, and the Kd [2] was 30000 pM, the koff [2] was 0.000816 s⁻¹ and the kon [2] was 27500 M⁻¹ s⁻¹.

B5: FAP 4B9 IgG-huIL2v_E15V (P1AE4800) (other)
light: B3 light
heavy 1: B3 heavy 1
heavy 2: EVQLLESGGGLVQPGGSLRLSCAASGFTFSSYAMSWVRQAPGKGLEWVSAIIGSGASTYYADSVKGRFTISRDNSKNTLYLQMNSLRAEDTAVYYCAKGWFGGFNYWGQGTLVTVSSASTKGPSVFPLAPSSKSTSGGTAALGCLVKDYFPEPVTVSWNSGALTSGVHTFPAVLQSSGLYSLSSVVTVPSSSLGTQTYICNVNHKPSNTKVDKKV[human IgG1 Fc with changes not written out]GGGGSGGGGSGGGGSGGGGSGGGGSAPASSSTKKTQLQLVHLLLDLQMILNGINNYKNPKLTRMLTAKFAMPKKATELKHLQCLEEELKPLEEVLNGAQSKNFHLRPRDLISNINVIVLELKGSETTFMCEYADETATIVEFLNRWITFAQSIISTLT
notes: Immunoconjugate: anti-FAP IgG1 PG LALA knob/hole, IL2v variant on the knob heavy chain; also called P1AE4800-003
B5 gave a Kd [2] of 70 pM, a koff [2] of 2.94e-06 s⁻¹ and a kon [2] of 39400 M⁻¹ s⁻¹.

B6: FAP 4B9 IgG-huIL2v_E95A (P1AE4801) (other)
light: B3 light
heavy 1: B3 heavy 1
heavy 2: EVQLLESGGGLVQPGGSLRLSCAASGFTFSSYAMSWVRQAPGKGLEWVSAIIGSGASTYYADSVKGRFTISRDNSKNTLYLQMNSLRAEDTAVYYCAKGWFGGFNYWGQGTLVTVSSASTKGPSVFPLAPSSKSTSGGTAALGCLVKDYFPEPVTVSWNSGALTSGVHTFPAVLQSSGLYSLSSVVTVPSSSLGTQTYICNVNHKPSNTKVDKKV[human IgG1 Fc with changes not written out]GGGGSGGGGSGGGGSGGGGSGGGGSAPASSSTKKTQLQLEHLLLDLQMILNGINNYKNPKLTRMLTAKFAMPKKATELKHLQCLEEELKPLEEVLNGAQSKNFHLRPRDLISNINVIVLALKGSETTFMCEYADETATIVEFLNRWITFAQSIISTLT
notes: Immunoconjugate: anti-FAP IgG1 PG LALA knob/hole, IL2v variant on the knob heavy chain; also called P1AE4801-003
B6 was tested, and the Kd [2] was 90 pM, the koff [2] was 2.35e-06 s⁻¹ and the kon [2] was 25400 M⁻¹ s⁻¹.

B7: FAP 4B9 IgG-huIL2v_L12A (P1AE4804) (other)
light: B3 light
heavy 1: B3 heavy 1
heavy 2: EVQLLESGGGLVQPGGSLRLSCAASGFTFSSYAMSWVRQAPGKGLEWVSAIIGSGASTYYADSVKGRFTISRDNSKNTLYLQMNSLRAEDTAVYYCAKGWFGGFNYWGQGTLVTVSSASTKGPSVFPLAPSSKSTSGGTAALGCLVKDYFPEPVTVSWNSGALTSGVHTFPAVLQSSGLYSLSSVVTVPSSSLGTQTYICNVNHKPSNTKVDKKV[human IgG1 Fc with changes not written out]GGGGSGGGGSGGGGSGGGGSGGGGSAPASSSTKKTQAQLEHLLLDLQMILNGINNYKNPKLTRMLTAKFAMPKKATELKHLQCLEEELKPLEEVLNGAQSKNFHLRPRDLISNINVIVLELKGSETTFMCEYADETATIVEFLNRWITFAQSIISTLT
notes: Immunoconjugate: anti-FAP IgG1 PG LALA knob/hole, IL2v variant on the knob heavy chain; also called P1AE4804-003
With B7 the Kd [2] was 60 pM, the koff [2] was 2.58e-06 s⁻¹ and the kon [2] was 39000 M⁻¹ s⁻¹.

B8: FAP 4B9 IgG-huIL2v_L12A_L19A (P1AE4806) (other)
light: B3 light
heavy 1: B3 heavy 1
heavy 2: EVQLLESGGGLVQPGGSLRLSCAASGFTFSSYAMSWVRQAPGKGLEWVSAIIGSGASTYYADSVKGRFTISRDNSKNTLYLQMNSLRAEDTAVYYCAKGWFGGFNYWGQGTLVTVSSASTKGPSVFPLAPSSKSTSGGTAALGCLVKDYFPEPVTVSWNSGALTSGVHTFPAVLQSSGLYSLSSVVTVPSSSLGTQTYICNVNHKPSNTKVDKKV[human IgG1 Fc with changes not written out]GGGGSGGGGSGGGGSGGGGSGGGGSAPASSSTKKTQAQLEHLLADLQMILNGINNYKNPKLTRMLTAKFAMPKKATELKHLQCLEEELKPLEEVLNGAQSKNFHLRPRDLISNINVIVLELKGSETTFMCEYADETATIVEFLNRWITFAQSIISTLT
notes: Immunoconjugate: anti-FAP IgG1 PG LALA knob/hole, IL2v variant on the knob heavy chain; also called P1AE4806-003
B8 was tested, and the Kd [2] was 3000 pM, the koff [2] was 9.35e-05 s⁻¹ and the kon [2] was 27200 M⁻¹ s⁻¹.
